# Source: the supplement of paper PMC7826260
# The list shows a part of the results. One pool of 16,384 single-stranded DNAs met each Rep nickase domain in vitro (3 µM enzyme, 1 h, 37 °C); shown is the middle of each 90-letter strand. Values are log2 of uncut reads against the no-enzyme pool; strong cutting gives strongly negative numbers. There is no active / inactive call. Because reads are shares of a total, they shift together, so uncut sequences can rise above 0 when many others are cut.
# Tests used:
# Assay in all cases: uncleaved DNA left, log2 of reads against the no-enzyme library (log2 ratio); higher = less cleavage (more negative = more Rep cleavage of the k-mer); sequences stand for … in CTCGTCCG…ACCGGAGA
# [1] = tested on: T1, Rep nickase domain of Muscovy duck circovirus
# T1 sequence (protein, residues 1-111, tag omitted): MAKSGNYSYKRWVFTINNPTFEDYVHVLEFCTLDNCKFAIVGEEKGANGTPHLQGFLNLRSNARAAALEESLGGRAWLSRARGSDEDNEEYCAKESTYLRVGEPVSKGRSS
# Method: (§1)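 A pool of 90-nt single-stranded DNAs with seven random bases just before the constant AC of the nick site (name = the seven bases) was cut by 3 µM recombinant His6-SUMO-tagged Rep nickase domain (300 nM DNA, 50 mM HEPES pH 8.0, 50 mM NaCl, 1 mM MnCl2, 1 h, 37 °C, three replicates). Uncut DNA was amplified and sequenced.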
# [2] = tested on: T2, Rep nickase domain of banana bunchy top virus
# T2 sequence (protein, residues 1-94, tag omitted): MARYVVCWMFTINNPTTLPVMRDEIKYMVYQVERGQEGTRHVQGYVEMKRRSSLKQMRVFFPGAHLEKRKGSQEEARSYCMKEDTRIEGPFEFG
# Method: as §1
# [3] = tested on: T3, Rep nickase domain of cabbage leaf curl virus
# T3 sequence (protein, residues 1-116, tag omitted): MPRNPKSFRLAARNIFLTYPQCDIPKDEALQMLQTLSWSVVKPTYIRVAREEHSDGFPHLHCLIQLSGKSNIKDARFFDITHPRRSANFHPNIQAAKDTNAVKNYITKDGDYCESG
# Method: as §1
# [4] = tested on: T4, Rep nickase domain of chickpea chlorotic dwarf virus
# T4 sequence (protein, residues 1-124, tag omitted): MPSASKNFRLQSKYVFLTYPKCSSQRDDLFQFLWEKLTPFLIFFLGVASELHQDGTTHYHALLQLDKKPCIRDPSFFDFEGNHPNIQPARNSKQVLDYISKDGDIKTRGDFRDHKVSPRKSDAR
# Method: as §1
# [5] = tested on: T5, Rep nickase domain of faba bean necrotic yellows virus
# T5 sequence (protein, residues 1-98, tag omitted): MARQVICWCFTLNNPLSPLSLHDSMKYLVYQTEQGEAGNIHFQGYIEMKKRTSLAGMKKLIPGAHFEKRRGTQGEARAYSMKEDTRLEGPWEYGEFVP
# Method: as §1
# [6] = tested on: T6, Rep nickase domain of maize striate mosaic virus
# T6 sequence (protein, residues 1-117, tag omitted): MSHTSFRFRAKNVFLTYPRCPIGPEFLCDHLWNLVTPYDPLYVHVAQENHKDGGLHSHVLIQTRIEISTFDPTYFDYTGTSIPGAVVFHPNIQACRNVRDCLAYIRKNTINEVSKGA
# Method: as §1
# [7] = tested on: T7, Rep nickase domain of porcine circovirus 2
# T7 sequence (protein, residues 2-116, tag omitted): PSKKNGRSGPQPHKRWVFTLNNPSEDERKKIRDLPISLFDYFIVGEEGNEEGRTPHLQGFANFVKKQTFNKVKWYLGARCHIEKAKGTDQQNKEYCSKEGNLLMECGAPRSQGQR
# Method: as §1
# [8] = tested on: T8, Rep nickase domain of tomato golden mosaic virus
# T8 sequence (protein, residues 1-124, tag omitted): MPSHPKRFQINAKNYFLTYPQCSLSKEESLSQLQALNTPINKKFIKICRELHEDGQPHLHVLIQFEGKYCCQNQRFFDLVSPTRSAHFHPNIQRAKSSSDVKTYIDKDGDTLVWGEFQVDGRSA
# Method: as §1
# [9] = tested on: T9, Rep nickase domain of tomato yellow leaf curl virus
# T9 sequence (protein, residues 1-136, tag omitted): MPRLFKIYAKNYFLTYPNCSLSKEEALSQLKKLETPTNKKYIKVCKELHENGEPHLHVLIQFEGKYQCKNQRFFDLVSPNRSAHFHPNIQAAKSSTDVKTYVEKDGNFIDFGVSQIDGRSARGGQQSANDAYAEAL
# Method: as §1
# [10] = tested on: T10, Rep nickase domain of wheat dwarf virus
# T10 sequence (protein, residues 1-137, tag omitted): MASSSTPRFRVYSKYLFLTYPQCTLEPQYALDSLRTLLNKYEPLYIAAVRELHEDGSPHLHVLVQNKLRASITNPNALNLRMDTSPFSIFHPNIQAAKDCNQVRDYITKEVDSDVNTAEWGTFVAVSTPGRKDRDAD
# Method: as §1
Sequence,uncleaved DNA left (log2) [1],uncleaved DNA left (log2) [2],uncleaved DNA left (log2) [3],uncleaved DNA left (log2) [4],uncleaved DNA left (log2) [5],uncleaved DNA left (log2) [6],uncleaved DNA left (log2) [7],uncleaved DNA left (log2) [8],uncleaved DNA left (log2) [9],uncleaved DNA left (log2) [10]
AAAGACC,0.0657,0.0492,0.0942,0.457,-0.00128,0.142,0.134,0.0523,0.00969,0.121
GAGTGAT,0.112,-0.103,0.412,1.2,-0.14,1.97,-2.78,0.14,0.203,0.262
GATGGAG,0.0707,0.0585,-0.443,-0.364,0.0592,-0.698,0.298,0.0908,0.0776,0.00913
ACCCGAT,0.108,-0.164,0.134,0.457,-0.095,0.295,0.037,-0.0969,-0.136,-0.0553
GATCGTC,0.142,-0.00857,0.243,0.503,-0.0124,0.219,0.174,0.0627,0.0498,0.0284
AGATGGC,-0.0406,0.0157,-0.166,-0.245,0.00588,-0.978,-0.0223,0.00838,-0.0309,-0.126
GCATACG,0.0372,-0.0157,-0.62,-0.161,0.141,-0.612,0.171,0.0502,0.0745,-0.063
TACATTA,-0.0423,0.0376,-0.223,-2.29,0.0315,-0.717,-0.0967,0.047,-0.0142,-0.0362
CGCGGCT,-0.13,-0.0698,-0.184,0.105,-0.0584,0.417,-0.0687,0.0119,-0.229,-0.0116
GGTTTAG,-0.0273,-0.0403,-0.266,-0.0554,-0.0401,-0.483,0.0726,0.0731,0.0381,-0.0486
CACAGCT,0.00479,-0.00499,-0.53,-1.91,-0.0847,-1.1,-0.209,-0.0592,0.0512,-0.206
CGCATGG,-0.0991,0.0291,-0.158,-0.0442,0.00462,-0.598,0.0741,-0.0216,0.00698,0.0264
ATATTTC,0.00473,0.0871,-0.0273,-0.434,0.0339,-0.932,-0.00984,-0.127,-0.0468,-0.0491
GTCCTCA,0.08,0.123,0.457,0.991,0.135,1.78,0.152,0.231,0.174,0.109
TCGTTAT,-0.0529,-0.121,0.0676,-0.723,-0.0113,-0.181,-2.75,-0.17,0.00519,-0.122
ATATATG,0.0753,0.145,-0.483,-0.383,0.0881,-1.06,0.227,0.0729,0.0459,-0.0193
CCGTCTA,-0.235,-0.0522,0.0381,-0.732,-0.0501,-0.137,-0.175,0.0448,-0.0285,-0.101
CTCCCAG,0.0283,-0.0278,-0.689,-0.561,0.126,-0.947,0.12,-0.0378,0.00698,0.00198
GAGTTAG,-0.021,-0.0686,-0.598,-0.432,-0.0752,-0.824,-0.181,-0.0759,-0.0921,-0.17
CGCAGAA,0.127,0.22,0.112,0.17,0.244,-0.262,0.133,0.107,0.0619,0.115
GTACTCA,0.0297,0.0406,0.219,0.7,-0.0876,1.58,-0.0434,0.0929,0.104,0.0905
TGAGCCA,-0.0633,0.138,0.18,-0.129,0.081,0.127,-0.312,0.0889,0.0932,0.084
CGTGTAC,0.0485,0.0356,0.157,0.143,0.068,0.538,0.0278,0.051,-0.0331,-0.0398
CGCTGCA,-0.0458,-0.0063,-0.259,-0.326,0.0902,-0.545,0.0212,0.0424,0.0604,0.00608
GTCTCGA,0.12,0.158,0.353,0.669,0.122,1.48,0.212,0.197,0.119,0.199
GTGACAC,0.0481,0.107,0.641,1.53,0.0203,2.15,0.197,0.116,0.0505,0.247
CCTTGAT,-0.234,0.0418,-0.148,-0.0906,0.036,0.0825,-1.53,-0.0417,-0.0774,-0.087
TCCTAAT,-1.78,-0.00417,0.0802,-0.994,-0.106,-0.271,-3.44,-0.0637,0.0654,0.0606
AATCATA,0.0727,-0.0222,-0.0985,-2.39,-0.06,-0.646,-0.115,0.0469,-0.03,0.0254
TCCATCT,-0.023,0.000623,-0.0308,-1.72,0.0233,-0.701,-0.102,-0.0185,-0.0244,-0.0891
